Consider two molecules from article PMC6467649 (Molecular pharmaceutics, 2019).

For data set [1], the target named is bile salt export pump (BSEP), p.444A variant (Homo sapiens, UniProt O95342, V444A). In kind it is biochemical.
Substrate in data set [2]: C[C@H](CCC(=O)NCC(=O)O)[C@H]1CC[C@H]2[C@@H]3[C@H](O)C[C@@H]4C[C@H](O)CC[C@]4(C)[C@H]3C[C@H](O)[C@]12C
Nature of the data set: ATP-dependent transport kinetics in Sf9 membrane vesicles. It counts as biochemical, Homo sapiens.

As for `CC1=C(CC(=O)O)c2cc(F)ccc2/C1=C\c1ccc([S+](C)[O-])cc1` (centres unmarked) [sulindac], the IC50 in data set [1] is 136 ± 25.1 µM.

B1: bile salt export pump (BSEP), p.444A variant (Homo sapiens; V444A) (protein)
chain: MSDSVILRSIKKFGEENDGFESDKSYNNDKKSRLQDEKKGDGVRVGFFQLFRFSSSTDIWLMFVGSLCAFLHGIAQPGVLLIFGTMTDVFIDYDVELQELQIPGKACVNNTIVWTNSSLNQNMTNGTRCGLLNIESEMIKFASYYAGIAVAVLITGYIQICFWVIAAARQIQKMRKFYFRRIMRMEIGWFDCNSVGELNTRFSDDINKINDAIADQMALFIQRMTSTICGFLLGFFRGWKLTLVIISVSPLIGIGAATIGLSVSKFTDYELKAYAKAGVVADEVISSMRTVAAFGGEKREVERYEKNLVFAQRWGIRKGIVMGFFTGFVWCLIFLCYALAFWYGSTLVLDEGEYTPGTLVQIFLSVIVGALNLGNASPCLEAFATGRAAATSIFETIDRKPIIDCMSEDGYKLDRIKGEIEFHNVTFHYPSRPEVKILNDLNMAIKPGEMTALVGPSGAGKSTALQLIQRFYDPCEGMVTVDGHDIRSLNIQWLRDQIGIVEQEPVLFSTTIAENIRYGREDATMEDIVQAAKEANAYNFIMDLPQQFDTLVGEGGGQMSGGQKQRVAIARALIRNPKILLLDMATSALDNESEAMVQEVLSKIQHGHTIISVAHRLSTVRAADTIIGFEHGTAVERGTHEELLERKGVYFTLVTLQSQGNQALNEEDIKDATEDDMLARTFSRGSYQDSLRASIRQRSKSQLSYLVHEPPLAVVDHKSTYEEDRKDKDIPVQEEVEPAPVRRILKFSAPEWPYMLVGSVGAAVNGTVTPLYAFLFSQILGTFSIPDKEEQRSQINGVCLLFVAMGCVSLFTQFLQGYAFAKSGELLTKRLRKFGFRAMLGQDIAWFDDLRNSPGALTTRLATDASQVQGAAGSQIGMIVNSFTNVTVAMIIAFSFSWKLSLVILCFFPFLALSGATQTRMLTGFASRDKQALEMVGQITNEALSNIRTVAGIGKERRFIEALETELEKPFKTAIQKANIYGFCFAFAQCIMFIANSASYRYGGYLISNEGLHFSYVFRVISAVVLSATALGRAFSYTPSYAKAKISAARFFQLLDRQPPISVYNTAGEKWDNFQGKIDFVDCKFTYPSRPDSQVLNGLSVSISPGQTLAFVGSSGCGKSTSIQLLERFYDPDQGKVMIDGHDSKKVNVQFLRSNIGIVSQEPVLFACSIMDNIKYGDNTKEIPMERVIAAAKQAQLHDFVMSLPEKYETNVGSQGSQLSRGEKQRIAIARAIVRDPKILLLDEATSALDTESEKTVQVALDKAREGRTCIVIAHRLSTIQNADIIAVMAQGVVIEKGTHEELMAQKGAYYKLVTTGSPIS
For B1, in data set [2], the Km is 45.70 ± 25.52 µM.
